From publication PMC4727891, “Molecular Basis of Orb2 Amyloidogenesis and Blockade of Memory Consolidation” (PLoS Biology, 2016)

Molecular target: T1, Orb2B (Drosophila melanogaster, UniProt Q9VSR3)
T1 construct: gene orb2; aggregates
Test: ThT fluorescence
Format: binding
Settings: amyloid form; 25 µM ThT, 50 mM glycine pH 8.5

T1 sequence (Q9VSR3 whole entry): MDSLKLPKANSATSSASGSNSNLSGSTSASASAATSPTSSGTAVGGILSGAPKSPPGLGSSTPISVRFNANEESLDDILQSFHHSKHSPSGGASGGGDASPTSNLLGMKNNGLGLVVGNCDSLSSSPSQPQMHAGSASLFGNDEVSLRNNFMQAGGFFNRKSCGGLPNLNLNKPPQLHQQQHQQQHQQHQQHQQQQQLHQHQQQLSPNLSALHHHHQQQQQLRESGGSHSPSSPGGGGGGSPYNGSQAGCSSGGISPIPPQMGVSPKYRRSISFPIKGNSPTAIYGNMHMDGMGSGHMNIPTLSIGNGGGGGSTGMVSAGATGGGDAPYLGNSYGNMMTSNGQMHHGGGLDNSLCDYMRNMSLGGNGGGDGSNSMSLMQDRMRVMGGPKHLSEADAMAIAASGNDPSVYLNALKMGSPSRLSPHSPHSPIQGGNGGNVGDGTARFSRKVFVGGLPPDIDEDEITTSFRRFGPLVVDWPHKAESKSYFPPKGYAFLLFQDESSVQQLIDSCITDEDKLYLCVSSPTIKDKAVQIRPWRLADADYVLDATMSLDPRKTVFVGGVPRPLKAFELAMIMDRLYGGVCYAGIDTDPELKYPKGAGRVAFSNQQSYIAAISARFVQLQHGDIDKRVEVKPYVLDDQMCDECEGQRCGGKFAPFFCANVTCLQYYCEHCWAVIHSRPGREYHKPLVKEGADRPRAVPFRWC

Q: For Cc1ccc2c(c1)sc(-c1ccc(N(C)C)cc1)[n+]2C [thioflavin T], which ThT fluorescence is on record?
A: Both recombinant Orb2A and Orb2B bind to thioflavin T (ThT) and Congo red (CR) dyes
